Reference: paper PMC4336329 (PLoS ONE, 2015)
The whole screen tested about 310,000 compounds, of which about 14,000 (4.5%) showed an effect of 50% or more. The effect is printed as a negative number. The list shows a part of the results.

These molecules were tested against human ether-à-go-go-related gene (hERG) potassium channel (human, UniProt Q12809) (assay: primary screen, population patch clamp on CHO cells stably expressing hERG).
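Further: peak tail current of the secondary pulse compared with the same well before compound.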

human ether-à-go-go-related gene (hERG) potassium channel, sequence (Q12809 whole entry, looked up): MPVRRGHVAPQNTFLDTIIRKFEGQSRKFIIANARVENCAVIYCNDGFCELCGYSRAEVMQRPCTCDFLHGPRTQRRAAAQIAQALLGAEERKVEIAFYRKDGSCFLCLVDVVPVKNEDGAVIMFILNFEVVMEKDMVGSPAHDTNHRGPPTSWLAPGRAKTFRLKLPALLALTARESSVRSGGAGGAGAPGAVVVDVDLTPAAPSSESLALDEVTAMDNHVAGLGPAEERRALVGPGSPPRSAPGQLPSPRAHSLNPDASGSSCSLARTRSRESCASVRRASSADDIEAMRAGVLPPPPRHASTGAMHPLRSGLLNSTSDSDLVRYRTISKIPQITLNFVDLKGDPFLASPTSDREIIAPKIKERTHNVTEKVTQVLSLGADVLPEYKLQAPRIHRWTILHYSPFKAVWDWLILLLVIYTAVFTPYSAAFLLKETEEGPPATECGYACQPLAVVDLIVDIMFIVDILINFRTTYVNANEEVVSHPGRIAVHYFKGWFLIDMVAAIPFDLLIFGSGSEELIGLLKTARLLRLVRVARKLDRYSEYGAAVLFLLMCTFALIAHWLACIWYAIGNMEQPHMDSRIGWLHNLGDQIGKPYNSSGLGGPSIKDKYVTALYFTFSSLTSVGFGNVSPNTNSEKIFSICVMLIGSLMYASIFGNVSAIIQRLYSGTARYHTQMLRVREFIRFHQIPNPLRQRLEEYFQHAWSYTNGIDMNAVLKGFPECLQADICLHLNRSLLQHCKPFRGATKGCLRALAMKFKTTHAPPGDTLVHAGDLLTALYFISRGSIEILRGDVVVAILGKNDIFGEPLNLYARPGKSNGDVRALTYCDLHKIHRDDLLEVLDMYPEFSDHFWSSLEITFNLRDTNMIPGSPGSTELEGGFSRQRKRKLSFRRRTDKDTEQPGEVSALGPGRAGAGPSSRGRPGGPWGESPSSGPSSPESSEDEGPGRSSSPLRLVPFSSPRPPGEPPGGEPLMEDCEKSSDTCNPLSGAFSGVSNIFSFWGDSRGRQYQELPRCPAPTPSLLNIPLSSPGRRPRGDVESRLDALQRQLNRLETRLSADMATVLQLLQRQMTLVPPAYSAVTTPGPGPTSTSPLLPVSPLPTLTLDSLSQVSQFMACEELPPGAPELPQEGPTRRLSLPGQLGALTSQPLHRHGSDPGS

Compound	hERG current change (%, negative = inhibition) at 10uM [%]
CCN(CC)S(=O)(=O)c1ccc(S(=O)(=O)N2CCN(CCC#N)CC2)cc1	8.45
CCOc1ccc(NC(=O)CCc2c(C)nn(-c3ccc(N4CCCCC4)nn3)c2C)cc1	13.4
CCOc1ccc(N2C(=O)C3ON(C)C(c4ccc([N+](=O)[O-])cc4)C3C2=O)cc1 (stereo not shown)	20.7
Nc1cc(=O)[nH]c(SCC(=O)Nc2ccc3c(c2)CCC3)n1	21
COc1ccc([N+](=O)[O-])cc1NC(=O)CCN1CCN(c2ccccc2OC)CC1	-5.64
O=C(c1cnccn1)N1CCN(C/C=C/c2ccccc2)CC1	-16.6
CCOC(=O)c1sc2nc(C)nc(NCc3ccc(F)cc3)c2c1C	17.2
Cn1c(=O)oc2cc(S(=O)(=O)NC3CCCc4ccccc43)ccc21 (stereo not shown)	-9.82
COc1ccccc1NC(=O)NNC(=O)CN1C(=O)COc2ccccc21	22.7
CCOc1ccc(C(=O)NCC(=O)OCC(=O)N2CCCC2)cc1	9.6
Cc1cccc(CN2CCc3c([nH]c4ccccc34)C2CC(C)C)n1 (stereo not shown)	-3.98
CC1CCN(CC(=O)Nc2cccc([N+](=O)[O-])c2)CC1	3.53
Cc1ccc(Cl)cc1NC(=S)NCc1cccn1C	4.23
N#Cc1cc2c(nc1SCc1ccc(Cl)nc1)CCCCC2	0.646
NC(=O)CCS(=O)(=O)CCN1CCN(S(=O)(=O)c2ccc3c(c2)CCC3)CC1	11.2
N/C(=N\OC(=O)Nc1ccccc1)c1ccno1	5.64
C=C(C)CNC(=S)N/N=C(\C)c1ccc(Cl)s1	9.74
N/C(=N/OC(=O)c1ccc(Cl)cc1)c1ncc([N+](=O)[O-])s1	15.7
CC1Cc2ccccc2N1C(=O)CSc1nnc(NC(=O)Cc2cccs2)s1 (stereo not shown)	-4.25
CCc1ccc(CN2CCCC(CCC(=O)N3CCN(c4ccccn4)CC3)C2)o1 (stereo not shown)	-58.7
Nc1cc(Cl)ccc1C(=O)OCC(=O)NC1CCCCCCC1	2.69
CC1CC1C(=O)OCC(=O)NC(=O)NCc1ccco1 (stereo not shown)	-0.222

Compound	hERG current change (%, negative = inhibition) at 10uM [%]
Cc1csc(=O)n1CC(=O)OCC(=O)Nc1ccc(Cl)cc1F	4.07
CCc1cc(=O)oc2cc(OCC(=O)NCCCn3ccnc3)ccc12	-2.06
O=C(NCc1cccnc1)C1CCN(C(=O)c2ccc(Cl)cc2Cl)CC1	-10.8
Cc1ccccc1C(=O)Nc1cccc(NC(=O)c2cccnc2)c1	-9.39
O=C1OCC2=C1C(c1ccc(F)cc1)CC(=O)N2c1ccccc1 (stereo not shown)	-10.3
COc1cc2cnc(-c3ccsc3)c(-c3ccc(F)cc3)c2cc1OC	17.3
NN=C(c1cccc([N+](=O)[O-])c1)c1cccc([N+](=O)[O-])c1	0.696
COCCNC(=O)NC(=O)COC(=O)Cc1ccc2c(c1)OCCO2	-12.1
CCOc1ccccc1Nc1cc(C)nc2nc(C)nn12	-11.6
Cc1ccccc1OCc1nc2ccccc2c(=O)n1/N=C/c1ccco1	6.66
COc1ccc(O[C@H]2C=C[C@@H](c3ccccc3)O[C@@H]2CO/N=C/C[C@@H]2C=C[C@H](OC(C)=O)[C@@H](COC(C)=O)O2)cc1	-9.17
COc1ccc(-c2cc(C(=O)NCCCN3CCOCC3)on2)cc1OC	6.56
Cc1ncc(S(=O)(=O)c2ccccc2)c(-c2ccccc2Cl)n1	-2.47
Cc1cccc(N2CC(C(=O)Nc3cccc(S(=O)(=O)N4CCCCC4)c3)CC2=O)c1C (stereo not shown)	-3.11
NS(=O)(=O)c1ccc(CNC(=O)c2cc(-c3ccccn3)nc3ccc(Cl)cc23)cc1	15.6
Clc1cccc(-c2nn3c(Cn4cnc5ccccc54)nnc3s2)c1	2.23
CC1(c2ccc([N+](=O)[O-])c(CS(=O)(=O)c3ccccc3)c2)OCCO1	-7.33
C=C(C)CSc1nnc([C@@H](NC(=O)OC(C)(C)C)C(C)CC)o1 (stereo partly shown)	-10.5
CCOC(=O)C1CCCN(CCC(=O)Nc2ccccc2C)C1.Cl (stereo not shown)	12.5
O=C(O)C1(c2ccccc2)CCC(Nc2ccccc2)C1 (stereo not shown)	17.2
Cc1ccccc1C(=O)c1c[nH]c(C(=O)NCC2CCCO2)c1 (stereo not shown)	5.25
